# In all, about 33,000 sequences were measured (“E-score (-0.5 to 0.5)”: median about -0.054, highest 2% from about 0.39 on). This is one part of the list.
# Biological target: Ylr278c (UniProt Q05854)
# Assay: PBM E-score (8-mer binding enrichment) (E-score (-0.5 to 0.5)); higher = stronger / more preferred TF binding; most listed sequences are background and not binding sites
# Details: protein concentration: 200 nM; construct: GST-DNA-binding domain
# Outline: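 The E-score, a modified Wilcoxon-Mann-Whitney statistic, was computed by the Universal PBM Analysis Suite for every ungapped eight-base word pooled with its reverse complement. Scans behind it were normalised with masliner after bound GST-tagged yeast transcription factors were detected with fluorescent anti-GST. The proteins, at about 100-200 nM, had been applied to universal all-10-mer Agilent arrays made double-stranded by primer extension.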
row,Sequence,PBM E-score
1,AGGACGTC,0.0253
2,ACAATGCC,0.181
3,ATAAAGGG,-0.103
4,GCCTTGCA,-0.269
5,CCTCTAAA,-0.319
6,AGCATCTC,-0.0457
7,GCACAAAA,0.152
8,CACCATCG,-0.15
9,ACCCTCTC,-0.08
10,CTCGCAAA,-0.258
11,GTCCCTAA,-0.0663
12,GACTGTAC,-0.155
13,CCTGGGAA,-0.134
14,CCGATTCG,0.267
15,ACGGTCAA,0.0459
16,AACGATAA,-0.0408
17,CATTACGA,-0.359
18,ATAACCCG,0.209
19,CCTGATCA,-0.168
20,CGTCATCC,-0.0289
21,AAAGGATC,-0.141
22,AGCCCGCT,-0.0693
23,CGACCATA,-0.0958
24,ATACGTCG,0.0915
25,TACAAATA,-0.0585

row,Sequence,PBM E-score
1,AAAGACAT,-0.178
2,CGGACCAC,0.293
3,CATTTGTA,-0.118
4,AAAGTTAC,-0.143
5,AGGGGCAT,-0.0977
6,GGTATTAA,0.0784
7,AGACTGAG,-0.244
8,CGCCTGCA,-0.194
9,ACGGACTG,0.0807
10,CGAACTAA,-0.0681
11,AAAAACCA,0.0223
12,GGAAATCC,0.346
13,GACGACGA,-0.0714
14,GCGATAAC,0.215
15,CATGTGAG,-0.29
16,CCGTATGC,0.261
17,GCGCGACC,0.0712
18,GTCCATGA,-0.179
19,CAGAAGGA,-0.338
20,AACCTAAG,-0.182
21,CAGTTAAA,-0.113
22,AGCCCTCG,-0.143
23,TTCTTAAA,-0.17
24,AACAGATG,-0.158
25,CCCGCAAA,0.189

row,Sequence,PBM E-score
1,AAACAAAA,-0.0847
2,TACCTAGA,-0.233
3,AACTAGGG,-0.195
4,ACAAAAAA,-0.0599
5,CACTGTCA,-0.307
6,CTCGCCTA,-0.0539
7,CAGGAAAA,0.00343
8,CGCGAGAA,0.178
9,GAGCACTA,-0.178
10,ATCGCAAA,-0.105
11,AAGATGGA,-0.0501
12,AGCGTTGG,-0.209
13,GCTGCCCA,-0.193
14,GCTAATCA,-0.116
15,TATTGCCA,-0.0931
16,GCGCTGGA,0.11
17,CGAAGTCA,-0.0453
18,ATTCGCTC,0.0759
19,ACAGCTCC,0.13
20,GATGTTCC,0.179
21,TACAATCA,-0.16
22,AAATGTAG,-0.0275
23,ATTCGTAC,-0.102
24,AAGAGATA,-0.194
25,GATCGACA,-0.055

row,Sequence,PBM E-score
1,CCATTTGA,-0.00555
2,CGTGCTAA,-0.0776
3,AATCTTGT,0.0194
4,GTCGCAGA,-0.00463
5,ACCCTCCC,0.251
6,TACTCCAA,-0.243
7,CTTCAGTC,-0.134
8,TCTTCGCA,0.0722
9,AACGAAGG,-0.238
10,ACGTCAAC,-0.0531
11,GATCAGGC,-0.0423
12,ATTGAGTG,-0.0839
13,AGTCTAGA,-0.209
14,TCCAAGGA,0.0797
15,CCTTCAGC,-0.208
16,CCGCGGAG,0.449
17,CAGACATA,0.03
18,ACTAGCGA,-0.0813
19,AAACGGCA,0.0355
20,ATACATCA,-0.138
21,GTCTTCAA,-0.344
22,GGGCTCAA,-0.00819
23,CAGAGGTA,-0.232
24,GGATCCAC,-0.0712
25,GATGCCGC,0.181

row,Sequence,PBM E-score
1,CGAGCTCG,0.105
2,GGCGTAGA,-0.0366
3,CTAACACC,-0.026
4,AATTCGCA,0.214
5,GATCACGA,-0.209
6,CGCGTAGC,0.0684
7,CCCTACGG,0.0961
8,GACACTAC,0.0999
9,CTAGAATA,-0.0546
10,ATACTCGC,0.166
11,GCAATGGA,-0.118
12,ACTACCGG,0.304
13,AAACAAGT,-0.0893
14,CTGGGGCC,-0.0146
15,AGCCCCGC,0.18
16,AAGTGGCA,-0.22
17,GATGCCCC,-0.017
18,CTGCCTCA,-0.234
19,GATTAGCA,-0.114
20,TCGCAACA,-0.0735
21,ATTGACCA,-0.196
22,CGCTAATA,0.101
23,GTTAAACA,0.0395
24,GCACCCCC,-0.0808
25,ACCGTGAT,-0.0148

row,Sequence,PBM E-score
1,ACCTGACG,-0.262
2,ACCGGGTG,0.283
3,GGGGAACC,-0.0533
4,TGGTCACA,-0.0628
5,CTGACCAA,-0.185
6,AGCAACCT,-0.0958
7,AGCAGTAC,-0.15
8,ACCACGTC,-0.14
9,CTCTCGTA,-0.18
10,ACCACATC,0.0312
11,ATGTTGAG,-0.0471
12,AACTTTGG,-0.168
13,GCAATTCC,0.268
14,AACAGGTG,-0.24
15,CCAAATCG,-0.0345
16,ACAATACC,0.0678
17,GGGGTACA,0.108
18,CCTCAGAC,0.139
19,ATATCTGC,-0.0708
20,ACGATAAA,-0.0639
21,ACGTCCCT,-0.288
22,AAAGTAGG,-0.0614
23,AGAGGCTG,-0.326
24,GTTGACTA,-0.205
25,ACATGTAA,-0.12

row,Sequence,PBM E-score
1,GCCTTGGA,-0.162
2,AACTCTCT,-0.0184
3,ACTGCCCG,0.0339
4,CTCAAACA,-0.0563
5,TAGGCCCA,-0.313
6,ACGACAAC,0.00648
7,ATGTGAAC,-0.144
8,AGCGCTTA,-0.0851
9,TAAATTAA,0.0642
10,ATTGCACC,-0.0277
11,CCTTGATA,-0.159
12,ATATTAAT,0.106
13,ATCTAGCA,-0.229
14,GGCGCTTA,0.0332
15,CACCATTA,0.0639
16,ACTGCTTA,-0.179
17,CATCTCGG,0.359
18,ATATGACG,0.0851
19,ACCACAGA,-0.19
20,AAATCGTC,0.0262
21,AGAGCCAG,-0.312
22,AACCACCA,-0.157

# — the supplement of paper PMC3334620
